Results taken from the supplement of paper PMC8728848.
The list shows a part of the results.

Tests used:
Test in all cases: glycan array binding signal (z-score within array); higher = stronger binding
Details in all cases: glycan notation: IUPAC condensed, linker removed
Fuc(a1-2)Gal = target: Fuc(a1-2)Gal
Summary of the method: (§1)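 From the Consortium for Functional Glycomics database, 3228 arrays were curated, keeping only those whose protein sequence was available. Binding is given as a within-array Z-score averaged across arrays sharing a protein sequence and across linkers. Negative Z-scores can be read as non-binding.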

Fuc(a1-2)Gal(b1-3)GalNAc = target: Fuc(a1-2)Gal(b1-3)GalNAc
Summary of the method: as §1

[1] = target: Fuc(a1-2)Gal(b1-3)GalNAc(a1-3)[Fuc(a1-2)]Gal(b1-4)Glc
Summary of the method: as §1

[2] = target: Fuc(a1-2)Gal(b1-3)GalNAc(a1-3)[Fuc(a1-2)]Gal(b1-4)GlcNAc
Summary of the method: as §1

[3] = target: Fuc(a1-2)Gal(b1-3)GalNAc(b1-3)Gal
Summary of the method: as §1

[4] = target: Fuc(a1-2)Gal(b1-3)GalNAc(b1-3)Gal(a1-4)Gal(b1-4)Glc
Summary of the method: as §1

[5] = target: Fuc(a1-2)Gal(b1-3)GalNAc(b1-4)[Neu5Ac(a2-3)]Gal(b1-4)Glc
Summary of the method: as §1

Fuc(a1-2)Gal(b1-3)GlcNAc = target: Fuc(a1-2)Gal(b1-3)GlcNAc
Summary of the method: as §1

[6] = target: Fuc(a1-2)Gal(b1-3)GlcNAc(b1-2)Man(a1-3)[Fuc(a1-2)Gal(b1-3)GlcNAc(b1-2)Man(a1-6)]Man(b1-4)GlcNAc(b1-4)GlcNAc
Summary of the method: as §1

[7] = target: Fuc(a1-2)Gal(b1-3)GlcNAc(b1-2)Man(a1-3)[Fuc(a1-2)Gal(b1-3)GlcNAc(b1-2)Man(a1-6)]Man(b1-4)GlcNAc(b1-4)[Fuc(a1-6)]GlcNAc
Summary of the method: as §1

[8] = target: Fuc(a1-2)Gal(b1-3)GlcNAc(b1-3)Gal(b1-4)Glc
Summary of the method: as §1

[9] = target: Fuc(a1-2)Gal(b1-3)GlcNAc(b1-3)GalNAc
Summary of the method: as §1

[10] = target: Fuc(a1-2)Gal(b1-3)GlcNAc(b1-3)[Fuc(a1-3)[Gal(b1-4)]GlcNAc(b1-6)]Gal(b1-4)Glc
Summary of the method: as §1

[11] = target: Fuc(a1-2)Gal(b1-3)GlcNAc(b1-3)[Gal(b1-4)GlcNAc(b1-6)]Gal(b1-4)Glc
Summary of the method: as §1

[12] = target: Fuc(a1-2)Gal(b1-3)GlcNAc(b1-3)[Neu5Ac(a2-6)Gal(b1-4)GlcNAc(b1-6)]Gal(b1-4)Glc
Summary of the method: as §1

[13] = target: Fuc(a1-2)Gal(b1-3)[Fuc(a1-4)]GlcNAc
Summary of the method: as §1

[14] = target: Fuc(a1-2)Gal(b1-3)[Fuc(a1-4)]GlcNAc(b1-2)Man(a1-3)[Fuc(a1-2)Gal(b1-3)[Fuc(a1-4)]GlcNAc(b1-2)Man(a1-6)]Man(b1-4)GlcNAc(b1-4)GlcNAc
Summary of the method: as §1

[15] = target: Fuc(a1-2)Gal(b1-3)[Fuc(a1-4)]GlcNAc(b1-3)[Fuc(a1-3)[Gal(b1-4)]GlcNAc(b1-6)]Gal(b1-4)Glc
Summary of the method: as §1

[16] = target: Fuc(a1-2)Gal(b1-3)[Fuc(a1-4)]GlcNAc(b1-3)[Gal(b1-4)GlcNAc(b1-6)]Gal(b1-4)Glc
Summary of the method: as §1

Fuc(a1-2)Gal(b1-4)Glc = target: Fuc(a1-2)Gal(b1-4)Glc
Summary of the method: as §1

Fuc(a1-2)Gal(b1-4)Glc6S = target: Fuc(a1-2)Gal(b1-4)Glc6S
Summary of the method: as §1

Fuc(a1-2)Gal(b1-4)GlcNAc = target: Fuc(a1-2)Gal(b1-4)GlcNAc
Summary of the method: as §1

[17] = target: Fuc(a1-2)Gal(b1-4)GlcNAc(b1-2)Man(a1-3)[Fuc(a1-2)Gal(b1-4)GlcNAc(b1-2)Man(a1-6)]Man(b1-4)GlcNAc(b1-4)GlcNAc
Summary of the method: as §1

[18] = target: Fuc(a1-2)Gal(b1-4)GlcNAc(b1-2)Man(a1-3)[Fuc(a1-2)Gal(b1-4)GlcNAc(b1-2)Man(a1-6)]Man(b1-4)GlcNAc(b1-4)[Fuc(a1-6)]GlcNAc
Summary of the method: as §1

[19] = target: Fuc(a1-2)Gal(b1-4)GlcNAc(b1-2)[Fuc(a1-2)Gal(b1-4)GlcNAc(b1-4)]Man(a1-3)[Fuc(a1-2)Gal(b1-4)GlcNAc(b1-2)Man(a1-6)]Man(b1-4)GlcNAc(b1-4)GlcNAc
Summary of the method: as §1

[20] = target: Fuc(a1-2)Gal(b1-4)GlcNAc(b1-3)Gal(b1-4)GlcNAc
Summary of the method: as §1

[21] = target: Fuc(a1-2)Gal(b1-4)GlcNAc(b1-3)Gal(b1-4)GlcNAc(b1-3)Gal(b1-4)GlcNAc
Summary of the method: as §1

[22] = target: Fuc(a1-2)Gal(b1-4)GlcNAc(b1-3)GalNAc
Summary of the method: as §1

[23] = target: Fuc(a1-2)Gal(b1-4)GlcNAc(b1-3)[Fuc(a1-2)Gal(b1-4)GlcNAc(b1-6)]GalNAc
Summary of the method: as §1

[24] = target: Fuc(a1-2)Gal(b1-4)GlcNAc6S
Summary of the method: as §1

B1: RS2L (Ralstonia solanacearum), B5RXL5_RALSO (protein)
chain: MAQQGVFTLPANTSFGVTAFANAANTQTIQVLVDNVVKATFTGSGTSDKLLGSQVLNSGSGAIKIQVSVNGKPSDLVSNQTILANKLNFAMVGSEDGTDNDYNDGIAVLNWPLG
glycan array binding signal (z-score) (Fuc(a1-2)Gal): 0.021
glycan array binding signal (z-score) (Fuc(a1-2)Gal(b1-3)GalNAc): -0.183
glycan array binding signal (z-score) [1]: -0.219
glycan array binding signal (z-score) [2]: -0.236
glycan array binding signal (z-score) [3]: -0.248
glycan array binding signal (z-score) [4]: -0.224
glycan array binding signal (z-score) [5]: -0.211
glycan array binding signal (z-score) (Fuc(a1-2)Gal(b1-3)GlcNAc): -0.216
glycan array binding signal (z-score) [6]: 0.317
glycan array binding signal (z-score) [7]: 0.443
glycan array binding signal (z-score) [8]: -0.174
glycan array binding signal (z-score) [9]: -0.211
glycan array binding signal (z-score) [10]: -0.192
glycan array binding signal (z-score) [11]: -0.211
glycan array binding signal (z-score) [12]: -0.18
glycan array binding signal (z-score) [13]: -0.189
glycan array binding signal (z-score) [14]: -0.101
glycan array binding signal (z-score) [15]: -0.194
glycan array binding signal (z-score) [16]: -0.157
glycan array binding signal (z-score) (Fuc(a1-2)Gal(b1-4)Glc): -0.213
glycan array binding signal (z-score) (Fuc(a1-2)Gal(b1-4)Glc6S): -0.066
glycan array binding signal (z-score) (Fuc(a1-2)Gal(b1-4)GlcNAc): -0.033
glycan array binding signal (z-score) [17]: 0.128
glycan array binding signal (z-score) [18]: 0.476
glycan array binding signal (z-score) [19]: -0.027
glycan array binding signal (z-score) [20]: -0.148
glycan array binding signal (z-score) [21]: 0.211
glycan array binding signal (z-score) [22]: -0.205
glycan array binding signal (z-score) [23]: -0.141
glycan array binding signal (z-score) [24]: -0.165
